The list shows a part of the results. Values were computed here from the reads of four pooled replicates and scatter widely.
target: T1, Pho4 (S. cerevisiae) (UniProt P07270); test: relative binding free energy (BET-seq); higher = weaker binding; details: reference: library average
T1 sequence: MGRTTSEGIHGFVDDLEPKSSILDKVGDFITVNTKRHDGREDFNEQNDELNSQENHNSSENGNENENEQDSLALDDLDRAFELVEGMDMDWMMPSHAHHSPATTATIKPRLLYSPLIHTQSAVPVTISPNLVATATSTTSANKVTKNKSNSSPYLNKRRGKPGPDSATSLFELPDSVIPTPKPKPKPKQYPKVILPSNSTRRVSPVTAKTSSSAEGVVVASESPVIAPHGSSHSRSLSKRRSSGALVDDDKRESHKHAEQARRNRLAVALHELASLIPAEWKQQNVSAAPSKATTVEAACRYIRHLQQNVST

Row | Sequence | relative binding free energy
1 | ATGACCACGTGGTGAG | -0.02 kcal/mol
2 | AATGACACGTGAGGTG | 0.27 kcal/mol
3 | ACAGTCACGTGGTATG | -0.13 kcal/mol
4 | ATGTGCACGTGCATTG | 0 kcal/mol
5 | GAAGGCACGTGGCGGC | -0.08 kcal/mol
6 | GTCGACACGTGTGGGT | 0.21 kcal/mol
7 | AGGGGCACGTGATTGC | 0.1 kcal/mol
8 | GATATCACGTGCGTTG | 0.2 kcal/mol
9 | TGAGTCACGTGTGGTT | 0.22 kcal/mol
10 | GGCATCACGTGTGGAT | 0.38 kcal/mol
11 | TTAGACACGTGCGGTA | -0.11 kcal/mol
12 | TGAAGCACGTGGGTAC | -0.24 kcal/mol
13 | TAATACACGTGTGTGT | 0 kcal/mol
14 | AGAGGCACGTGTTAAG | -0.03 kcal/mol
15 | TGATTCACGTGCGGAG | 0.18 kcal/mol
16 | TTATTCACGTGAAAAT | 0.25 kcal/mol
17 | GTGAGCACGTGGTTCA | -0.08 kcal/mol
18 | TTTAACACGTGTTGAG | -0.04 kcal/mol
19 | TAATCCACGTGGAGGT | 0.06 kcal/mol
20 | CGGGTCACGTGGGTGG | -0.04 kcal/mol
21 | TGTCTCACGTGCAGGA | 0.42 kcal/mol
22 | TTTTGCACGTGGACAT | -0.13 kcal/mol
23 | CTAGTCACGTGGTTAA | 0.03 kcal/mol
24 | ACCGGCACGTGGTTGG | -0.17 kcal/mol
25 | AGTGACACGTGCTTGT | -0.04 kcal/mol

Row | Sequence | relative binding free energy
26 | GATATCACGTGGTCAG | 0.25 kcal/mol
27 | CGGGTCACGTGTACTG | 0.14 kcal/mol
28 | TTAGACACGTGTGTGC | -0.11 kcal/mol
29 | AATGGCACGTGGGAAG | -0.21 kcal/mol
30 | GTAGTCACGTGACTGA | 0.34 kcal/mol
31 | TGTCGCACGTGGAAAT | 0.06 kcal/mol
32 | TAGTTCACGTGTGATA | 0.14 kcal/mol
33 | CAGGACACGTGTCGGG | 0.15 kcal/mol
34 | CGTGTCACGTGATCTG | 0.07 kcal/mol
35 | CTTAGCACGTGTTAGT | -0.03 kcal/mol
36 | GGTTGCACGTGATTTA | 0.18 kcal/mol
37 | TGCGGCACGTGGTGGT | -0.11 kcal/mol
38 | AATTCCACGTGATGGG | 0.3 kcal/mol
39 | CTTAACACGTGGAGTG | -0.07 kcal/mol
40 | TCATTCACGTGTAGGA | 0.29 kcal/mol
41 | AGTGTCACGTGGACAT | 0.12 kcal/mol
42 | GGGTTCACGTGATGTT | 0.36 kcal/mol
43 | ACGTGCACGTGTCGGG | -0.13 kcal/mol
44 | TGTAACACGTGTTGGA | 0.1 kcal/mol
45 | AGGCGCACGTGATTAT | 0.19 kcal/mol
46 | CGTTACACGTGTACGG | 0.11 kcal/mol
47 | GGTATCACGTGTCGTG | 0.21 kcal/mol
48 | GATGGCACGTGGGCAT | -0.27 kcal/mol
49 | CTTGGCACGTGCGTTT | -0.13 kcal/mol
50 | ATAGACACGTGGATTG | 0.05 kcal/mol

Row | Sequence | relative binding free energy
51 | AGTACCACGTGGTTTT | -0.09 kcal/mol
52 | GGACGCACGTGGTAGG | -0.14 kcal/mol
53 | TAATTCACGTGGGGTA | 0.02 kcal/mol
54 | TTTTGCACGTGAATGT | 0.22 kcal/mol
55 | CGGTACACGTGTGGCG | 0.15 kcal/mol
56 | GATATCACGTGTGGAT | 0.16 kcal/mol
57 | AATAACACGTGGGTTT | -0.19 kcal/mol
58 | TGTGACACGTGGTACT | -0.13 kcal/mol
59 | CGGAGCACGTGAGGTG | 0.17 kcal/mol
60 | ATTGTCACGTGGCGGA | -0.14 kcal/mol
61 | TTCAGCACGTGGAGTT | 0.02 kcal/mol
62 | TGCTTCACGTGTGGTT | 0.35 kcal/mol
63 | GTGTGCACGTGGAAAA | 0.08 kcal/mol
64 | CTGGACACGTGGTTGC | 0.01 kcal/mol
65 | TCATGCACGTGGGGGG | -0.08 kcal/mol
66 | GGTAGCACGTGTCAGT | -0.08 kcal/mol
67 | ATAGGCACGTGTTGGG | -0.07 kcal/mol
68 | GGGGTCACGTGAAGAT | 0.4 kcal/mol
69 | GCTTACACGTGTTGTT | 0.22 kcal/mol
70 | TAAGGCACGTGTTTGG | -0.08 kcal/mol
71 | TTAGCCACGTGTTATG | -0.06 kcal/mol
72 | GAAAACACGTGGGGGG | -0.03 kcal/mol
73 | TAGATCACGTGGGAGA | 0.13 kcal/mol
74 | TATGCCACGTGCATGG | -0.13 kcal/mol
75 | GAAAACACGTGTGGGA | 0.09 kcal/mol

Row | Sequence | relative binding free energy
76 | ATTGTCACGTGGCTTA | -0.03 kcal/mol
77 | TTTGTCACGTGGACGA | 0.21 kcal/mol
78 | TCTGGCACGTGATAGG | 0.07 kcal/mol
79 | TGCTTCACGTGGTGCG | 0.3 kcal/mol
80 | ATTTACACGTGGGTAT | 0 kcal/mol
81 | ATTAACACGTGTTATA | 0.04 kcal/mol
82 | TGTATCACGTGTCTAG | 0.08 kcal/mol
83 | TAATTCACGTGAGGTC | 0.47 kcal/mol
84 | ATGGGCACGTGTAATA | 0.02 kcal/mol
85 | TTTGCCACGTGGGCGA | -0.15 kcal/mol
86 | GTGCTCACGTGGTACG | 0.27 kcal/mol
87 | GCGTGCACGTGGGGGC | -0.11 kcal/mol
88 | ATAAACACGTGGTGTC | -0.05 kcal/mol
89 | TTTTGCACGTGTTCGT | 0.07 kcal/mol
90 | TTGGCCACGTGGAAGT | 0.13 kcal/mol
91 | ATTGGCACGTGTGGTG | -0.03 kcal/mol
92 | AGGGGCACGTGTTGAT | -0.09 kcal/mol
93 | AAGCGCACGTGGGGGT | -0.26 kcal/mol
94 | AGCTGCACGTGAGTTA | 0.2 kcal/mol
95 | GTTGGCACGTGTATAA | 0 kcal/mol
96 | TTGACCACGTGGATTG | 0.03 kcal/mol
97 | AGGTTCACGTGCGTGA | 0.29 kcal/mol
98 | ATGGACACGTGTGCAG | 0.07 kcal/mol
99 | TAATACACGTGATGGG | 0.34 kcal/mol
100 | TCTAGCACGTGATAGG | 0.07 kcal/mol

Row | Sequence | relative binding free energy
101 | ATATGCACGTGTCGAT | 0.08 kcal/mol
102 | CATGACACGTGGGGAG | -0.14 kcal/mol
103 | CGTGGCACGTGAGGCG | 0.18 kcal/mol
104 | TTTGACACGTGGTTAA | -0.06 kcal/mol
105 | CGGTGCACGTGCATGG | -0.1 kcal/mol
106 | ATTTGCACGTGAGGGC | 0.2 kcal/mol
107 | TCCTTCACGTGGGGTG | 0.18 kcal/mol
108 | TGCGGCACGTGCATAG | -0.15 kcal/mol
109 | GTTGTCACGTGTTACT | 0.17 kcal/mol
110 | GGTACCACGTGAGTGG | 0.14 kcal/mol
111 | GTAGTCACGTGCATTT | 0.12 kcal/mol
112 | GGTAACACGTGATTAT | 0.05 kcal/mol
113 | TGGGACACGTGCTGGG | 0.03 kcal/mol
114 | TCTGGCACGTGAAGGG | 0.25 kcal/mol
115 | TTGGCCACGTGGGAGG | -0.1 kcal/mol
116 | TGAGACACGTGGGGAG | 0.01 kcal/mol
117 | CGTTACACGTGGGCGG | -0.02 kcal/mol
118 | TTTGCCACGTGGGATT | -0.06 kcal/mol
119 | GAGCACACGTGGGTAG | -0.06 kcal/mol
120 | GTGATCACGTGGTTGA | 0.1 kcal/mol
121 | ATGTTCACGTGGTGTA | 0.05 kcal/mol
122 | TCAGTCACGTGGAAGG | 0.21 kcal/mol
123 | AGGAACACGTGGGTGA | -0.15 kcal/mol
124 | TGTTTCACGTGATCAT | 0.28 kcal/mol
125 | AGTCCCACGTGGGGGG | -0.28 kcal/mol

Row | Sequence | relative binding free energy
126 | TTGGCCACGTGTTTAT | -0.1 kcal/mol
127 | ATTTGCACGTGGCGCT | -0.09 kcal/mol
128 | GGGCGCACGTGTCTGG | -0.05 kcal/mol
129 | ATTGGCACGTGACTTG | 0.05 kcal/mol
130 | GGGGACACGTGTATTG | 0.03 kcal/mol
131 | GAATGCACGTGGAGGA | 0.22 kcal/mol
132 | CTGGACACGTGGAGAG | 0.08 kcal/mol
133 | AGGCTCACGTGATTTG | 0.28 kcal/mol
134 | AGTGGCACGTGCGTGC | -0.15 kcal/mol
135 | AGCATCACGTGTGTTA | 0.14 kcal/mol
136 | TAGATCACGTGTGGCA | 0.21 kcal/mol
137 | GGCGGCACGTGGGTCA | -0.22 kcal/mol
138 | AAGTTCACGTGGGTCG | 0.25 kcal/mol
139 | TGTAGCACGTGACTGG | 0.01 kcal/mol
140 | CTGGGCACGTGGCGGG | -0.13 kcal/mol
141 | ATAAGCACGTGAGGAG | 0.13 kcal/mol
142 | TTGGGCACGTGTCTAG | -0.19 kcal/mol
143 | TGGCGCACGTGAAGGA | 0.04 kcal/mol
144 | ATTGCCACGTGTGGGT | 0 kcal/mol
145 | GCAATCACGTGGTTGT | 0.06 kcal/mol
146 | CGCAGCACGTGGTGTG | -0.16 kcal/mol

Source: the BET-seq Pho4 binding data (Le et al. 2018)
